Test results published in PubChem BioAssay AID1240 (Sanford-Burnham Center for Chemical Genomics, 2008).
Among all 50,000 compounds or so, about 800 (1.6%) showed an effect of 50% or more. The list shows a part of the results.

Target: Bcl-2-like protein 10 (Homo sapiens) (UniProt Q9HD36)
Assay: Phenotype converters, Bcl-B/TR3 peptide binding displacement, primary biochemical FP (AID 1240);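 also: 0% = Bcl-B with tracer peptide and DMSO and 100% = tracer peptide lacking Bcl-B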
Settings: GST-Bcl-B / FITC-TR3 peptide fluorescence polarization; stronger effect = higher value; compound at 3.75 mg/L

UniProt Q9HD36, sequence (Q9HD36 whole entry, looked up): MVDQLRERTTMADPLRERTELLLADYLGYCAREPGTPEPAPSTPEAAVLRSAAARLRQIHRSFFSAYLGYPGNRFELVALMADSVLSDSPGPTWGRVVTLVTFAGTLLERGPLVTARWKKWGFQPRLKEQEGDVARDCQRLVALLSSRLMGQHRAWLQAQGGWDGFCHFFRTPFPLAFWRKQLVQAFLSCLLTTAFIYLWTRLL

| SMILES | displacement |
| --- | --- |
| O=C1C(=O)N(c2ccccc2)C(c2ccc3c(c2)OCO3)/C1=C(\O)c1ccc(Br)cc1 (configuration not stated) | -1% |
| COc1ccc(/C=C2\CCc3ccccc3C2=O)cc1OC | 4.7% |
| Cc1cc(OCC(=O)NCc2ccc(F)cc2)ccc1Br | -6.4% |
| COC(=O)c1cc(NC(=O)c2cc3ccccc3oc2=O)cc(C(=O)OC)c1 | 3.6% |
| COCCCNC(=O)c1ccc(I)cc1 | 12.1% |
| O=C1NC(=O)C(=Cc2ccccc2OCc2ccc(Cl)cc2Cl)C(=O)N1 | 2.1% |
| COc1ccc2c(c1)nc(SCC(=O)c1ccccc1)n2C | 1.8% |
| O=C1CC(c2ccc3c(c2)OCO3)CC2=C1C(c1cc3c(cc1Br)OCO3)Nc1ccccc1N2 (configuration not stated) | 9.4% |
| O=C(Nc1ccc(N2CCCCC2)cc1)c1ccc(-c2ccccc2)cc1 | -0.9% |
| C=CCC(NCc1ccccc1)c1ccncc1 (configuration not stated) | -7.3% |
| COc1ccc(/C=C(/C#N)C(=O)Nc2cccc(Br)c2)c(OC)c1 | -8.7% |
| CC1=C(C(=O)OC(C)C)C(c2ccc3c(c2)OCO3)C(C(=O)OC(C)C)=C(C)N1 | 0.4% |
| COc1ccc([N+](=O)[O-])cc1NC(=O)CC(C)C | 1.2% |
| O=C(N/N=C/c1ccc([N+](=O)[O-])o1)c1ccc(O)cc1 | 5.9% |
| CCC(=O)Nc1ccc(-c2nc3ncccc3o2)cc1 | -3.3% |
| Cc1cc(C)cc(NCc2ccco2)c1 | 1.9% |
| Cc1ccccc1OCC(=O)Nc1ccc(O)c(-c2nc3ccccc3s2)c1 | 3.1% |
| O=C(CSc1nnc(-c2ccccc2)c(-c2ccccc2)n1)Nc1ccc(Cl)cc1 | -0.9% |
| CC(C)(C)NC(=O)c1ccc(-c2ccc(Cl)cc2)o1 | 7.5% |
| Cc1ccc(N2CC(C(=O)NCC(C)C)CC2=O)cc1 (configuration not stated) | -6.3% |
| O=S(=O)(Oc1cccc2ccccc12)c1cc(Cl)ccc1Cl | 7.4% |
| O=C(CN(c1ccc(F)cc1)S(=O)(=O)c1ccccc1)Nc1ccc(Cl)cc1 | 4.5% |

| SMILES | displacement |
| --- | --- |
| Cc1cccc(OCC(=O)Nc2ccc(Cl)c(Cl)c2)c1 | 3.2% |
| Cc1ccc(Nc2nc3ccc(C)cn3c(=O)c2/C=N/O)cc1 | 2.5% |
| Cc1c(NC2=NC(C)(C)Cc3ccccc32)c(=O)n(-c2ccccc2)n1C | -4% |
| O=C(Nc1ccc(-c2nc3ccc(NC(=O)c4ccccc4[N+](=O)[O-])cc3[nH]2)cc1)c1ccccc1[N+](=O)[O-] | 11.8% |
| O=C1Nc2c(S(=O)(=O)O)cc(S(=O)(=O)O)c3cccc1c23 | 4.7% |
| COc1ccc(C2CC(=O)C3=C(C2)Nc2ccccc2NC3c2cccc(C(F)(F)F)c2)cc1OC (configuration not stated) | -9.9% |
| COc1ccc(-n2c(O)c(/C=C3\C=CC=N3)c(=O)[nH]c2=O)cc1 | 85.4% |
| O=c1[nH]c(/C=C/c2ccccc2O)c([N+](=O)[O-])c(=O)[nH]1 | -6.5% |
| c1ccc2c(c1)N1CCN=C1N2CCN1CCOCC1 | -1.4% |
| Cc1ccc2c(C)nc(Nc3nc(C)c(C)c(=O)[nH]3)nc2c1 | -1% |
| Cc1cc([N+](=O)[O-])ccc1-c1ccc(C(=O)Nc2ccc(O)c(-c3nc4ccccc4s3)c2)o1 | 0.9% |
| CCOC(=O)c1c(NC(=O)c2cc(OC)c(OC)c(OC)c2)sc(C)c1C | -14.2% |
| O=C(Nc1ccc(I)cc1)c1cc(-c2cccs2)nc2ccccc12 | 7.8% |
| CCN(CC)C(=O)c1sc(NC(=O)c2cccc(F)c2)c(C(=O)OC(C)C)c1C | -1.8% |
| CN(C)c1cnn(-c2ccccc2)c(=O)c1N | -10.7% |
| O=C(c1ccc([N+](=O)[O-])cc1)c1ccc2c(c1)OCCCO2 | 4.5% |
| COc1cccc(N2C(=O)c3ccc(C(=O)NN4C(=O)c5ccccc5C4=O)cc3C2=O)c1 | 13% |
| Fc1ccc(C2C=C(c3ccccc3)NC(=S)N2)cc1 (configuration not stated) | -12.5% |
| CCCCOc1ccc(S(=O)(=O)N=Nc2c(O)[nH]c3ccc([N+](=O)[O-])cc23)cc1 | 19.1% |
| O=C1NC(=S)N(c2ccccc2)C(=O)/C1=C/c1cc(Cl)cc(Cl)c1O | 29.6% |
| CCOc1ccc(C(=O)NCCNc2ccc(Cl)cc2[N+](=O)[O-])cc1Br | 10.4% |
| CCOC(=O)c1c(NC(=O)c2ccc(F)cc2)sc2c1CC(C)(C)OC2 | -11.3% |

| SMILES | displacement |
| --- | --- |
| CCOc1ccccc1/C=C1/C(=O)NN(c2ccc(Br)cc2)C1=O | 15.6% |
| COc1ccc2nc(NC(=O)c3ccc(OC)c(Br)c3)sc2c1 | 33.1% |
| NC(=O)c1ccccc1NC(=O)c1cc2ccccc2oc1=O | 4.5% |
| COC(=O)c1ccccc1NC(=O)c1cc2nc(-c3ccccc3)cc(C)n2n1 | 37.7% |
| O=C(Nc1ccc(Nc2ccccc2)cc1)c1ccccc1I | -8.7% |
| O=C(NC1CCCCC1)N1CCN(c2cccc(Cl)c2)CC1 | 0.5% |
| CC(Sc1ccc(Cl)cc1)C(=O)NC(C)c1ccccc1 (configuration not stated) | 1.7% |
| Cn1ccnc1/C=C(/OC(=O)c1ccccc1)c1ccccc1 | 16.8% |
| Cc1ccnc(SCC(=O)N2c3ccccc3CCc3ccccc32)n1 | -5.2% |
| COc1ccc(CC(=O)N2CCN(c3cccc(Cl)c3)CC2)cc1OC | 2% |
| COc1ccc(CN2CCN(C(=O)c3cccc(F)c3)CC2)cc1Br | -11.5% |
| O=C(Nc1ccccc1Cl)c1cc(-c2ccco2)nc2ccccc12 | 3.3% |
| O=C1NC(=S)N/C1=C/c1ccc(Oc2ccc(C(F)(F)F)cc2[N+](=O)[O-])c(Cl)c1 | 88.3% |
| Cc1c(NC(=O)c2cc([N+](=O)[O-])ccc2Cl)cccc1-c1nc2ccccc2s1 | 2.3% |
| COc1cccc(N=C2c3ccccc3C(=O)C2c2cccc(Br)c2)c1 (configuration not stated) | 5% |
| Cc1cccc(N2C(=O)/C(=C/C=C/c3ccccc3)SC2=S)c1C | 7.2% |
| Cc1cc(C(=O)NCCCn2ccnc2)ccc1[N+](=O)[O-] | 3.3% |
| CS(=O)(=O)N(CC(=O)Nc1cccc(C(F)(F)F)c1)c1cccc(Cl)c1 | 8.7% |
| O=C1N/C(=N\Nc2ccccc2)S/C1=C\c1cccc(Br)c1 | -1.1% |
| O=C(Nc1ccc(-c2nc3ncccc3o2)cc1)c1ccc(-c2ccc(Br)cc2)o1 | 88.1% |
| CN(CCO)C1=NS(=O)(=O)c2cc([N+](=O)[O-])ccc21 | -6.2% |
| CCOC(=O)c1c(NC(=O)CCC(=O)OC)sc2c1CC(C)(C)SC2 | -4.4% |

| SMILES | displacement |
| --- | --- |
| COc1cc(-c2c(C#N)c(N)nc(SC)c2C#N)cc(OC)c1OC | -1.7% |
| COc1ccc(CCNS(=O)(=O)c2ccc3ccccc3c2)cc1 | 3% |
| CCOc1ccccc1N(CC(=O)N1CCC(C)CC1)S(=O)(=O)c1ccccc1 | 1.7% |
| Cc1ccc(Cc2cnc(CN(C)C)c(O)c2)cc1 | 19.4% |
| Nc1nnc(SCC(=O)NCCc2ccccc2)s1 | -15.1% |
| Cc1ccnc(NS(=O)(=O)c2ccc(NC(=O)c3cc(-c4ccc(Br)cc4)nc4ccccc34)cc2)n1 | 16% |
| O=C(N/N=C/c1cccn1-c1ccc([N+](=O)[O-])cc1)c1cc(-c2ccccc2)n[nH]1 | 1.9% |
| COc1cccc2sc(NC(=O)/C=C/c3ccccc3)nc12 | -0.2% |
| COc1cccc(CN2CCN(C(=O)C(c3ccccc3)c3ccccc3)CC2)c1OC | -1% |
| COc1ccc(/C(N)=N/OC(=O)Cc2ccc(Cl)cc2)cc1OC | -9.2% |
| O=C(O)CCSc1nc2ccc([N+](=O)[O-])cc2s1 | -2.2% |
| COc1cccc(C2NC(=O)NC(C)=C2C(=O)Nc2cccc(Cl)c2)c1 (configuration not stated) | -15.5% |
| COc1ccc(C2=NN(C(=O)CCC(=O)O)C(c3ccc(C)cc3)C2)cc1 (configuration not stated) | 0% |
| O=C(O)CCCCCN1C(=O)C(=O)/C(=C(/O)c2ccc(F)cc2)C1c1ccc(Cl)cc1 (configuration not stated) | -3.3% |
| Cc1ccc(-c2ccc(/C=C3/SC(=O)NC3=O)o2)c(Br)c1 | 5.6% |
| Cc1nc2ccccc2n1C(=O)c1ccc(Cl)cc1[N+](=O)[O-] | 4.5% |
| CCOC1=NC(C(F)(F)F)(C(F)(F)F)N=C(N=C(SC)SC)O1 | 5.5% |
| COC(=O)C1=C(C(=O)OC)SC(=C2C(=S)C(C)(C)N(C(=O)c3ccc4ccccc4c3)c3ccccc32)S1 | -4.1% |
| CCOc1ccc(/C=C2\SC(=S)N(CCC(=O)N3CCOCC3)C2=O)cc1 | 100% |
| c1ccc(N2Cc3cc4c(cc3C2)CN(c2ccccc2)C4)cc1 | -0.8% |
| COCCCNS(=O)(=O)c1c(C)cc(C)cc1C | -8.4% |
| Cc1cc(OCC(O)CNC(C)C)cc(C)c1Cl (configuration not stated) | 3.1% |

| SMILES | displacement |
| --- | --- |
| C=CCOc1ccc(/C=C/C(=O)c2ccc(C)cc2)cc1 | 10.6% |
| O=C(c1ccccc1)N1CCN(c2cc(N3CCCCC3)c(F)cc2[N+](=O)[O-])CC1 | -11% |
| O=C(CN1C2=NCCN2c2ccccc21)c1cccc([N+](=O)[O-])c1 | 5.1% |
| Brc1ccc(CN2CCN(Cc3ccncc3)CC2)cc1 | 1.1% |
| O=C(/C=C/c1ccc([N+](=O)[O-])cc1)Nc1ccc2c(c1)OCO2 | -1.1% |
| COc1ccc(CCNC(=O)C(=O)Nc2cccc(Cl)c2Cl)cc1OC | 17.2% |
| CCOc1ccc(C(=O)Nc2c(C)cccc2C)cc1Br | -4.8% |
| O=C(Nc1ccc(Cl)c(Cl)c1)c1cccc([N+](=O)[O-])c1 | -3.7% |
| O=C(O)/C=C/C(=O)Nc1ccc(-c2ccc(NC(=O)/C=C/C(=O)O)cc2)cc1 | 14.8% |
| Nc1c(C(=O)C2CC2)sc2nc3c(cc12)CCCC3 | 8.8% |
| COc1ccc(CCNS(=O)(=O)c2cccc([N+](=O)[O-])c2)cc1 | -2.2% |
| Cc1ccc(OCCOc2ccc(Br)cc2C=C2C(=O)NC(=S)NC2=O)cc1 | -23.5% |
| Cc1ccc(N=Cc2ccc(OC3CSC3)cc2)cc1C | -2.3% |
| Cc1ccc(NC(=O)CSc2ccc(Cl)cc2Cl)cc1 | 7.9% |
| O=C1NC2=Nc3ccccc3NC(c3ccccc3)=C2C(c2cccc3ncccc23)N1 (configuration not stated) | 8.7% |
| CCCOc1cccc(C(=O)Nc2sc(CC)cc2C(=O)OC)c1 | 1.7% |
| CCN1C(=O)/C(=C\c2cn(CCOc3ccccc3C)c3ccccc23)SC1=S | 127% |
| Cc1ccc(C(=O)Nc2c(C(=O)N3CCN(Cc4ccccc4)CC3)cnn2-c2ccccc2)cc1 | 7.8% |
| O=C(Nc1ccncc1)Nc1ccccn1 | 10.4% |
